{"source": "the supplement of paper PMC8728848", "binders": {"B1": {"name": "LFA (Limax flavus) (protein)", "chain": "MSVLFLAASFLLLASFELVAAQGCPRQDPGDWIVIQRRLNADVNFYRGWADYKHGFGDLRCNFWLGNEKIHQLTSHGRYKLRVEFTFNNKSYFAEYSTFKILGEADKYKLQVGGYSGNAGDALTFHNGMAFSTNDRDNDADSIDCAKVYHGAWWYKTCHESNLNGKWGSKKYGEGLNWKAKTTFTATATSSLLKIKALK"}}, "test_in_all_cases": "glycan array binding signal (z-score within array); higher = stronger binding", "details_in_all_cases": "glycan notation: IUPAC condensed, linker removed", "key": {"[1]": {"target": "Neu5Ac(a2-6)Gal(b1-4)GlcNAc(b1-3)Gal(b1-4)GlcNAc(b1-3)Gal(b1-4)GlcNAc", "how_it_was_run": "(§1)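 Glycan array data were curated from 3228 arrays in the Consortium for Functional Glycomics database and kept only where the protein sequence was available. Glycan names were converted to IUPAC-condensed notation, and columns mapping to the same glycan were averaged. The binding signal is a within-array Z-score, averaged across arrays of the same protein sequence at different concentrations or buffers and across linkers. Negative Z-scores can be read as non-binding.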"}, "[2]": {"target": "Neu5Ac(a2-6)Gal(b1-4)GlcNAc(b1-3)Gal(b1-4)GlcNAc(b1-3)Gal(b1-4)GlcNAc(b1-2)Man(a1-3)[Neu5Ac(a2-6)Gal(b1-4)GlcNAc(b1-3)Gal(b1-4)GlcNAc(b1-3)Gal(b1-4)GlcNAc(b1-2)Man(a1-6)]GalNAc", "how_it_was_run": "as §1"}, "[3]": {"target": "Neu5Ac(a2-6)Gal(b1-4)GlcNAc(b1-3)Gal(b1-4)GlcNAc(b1-3)GalNAc", "how_it_was_run": "as §1"}, "[4]": {"target": "Neu5Ac(a2-6)Gal(b1-4)GlcNAc(b1-3)Gal(b1-4)GlcNAc(b1-3)[Neu5Ac(a2-6)Gal(b1-4)GlcNAc(b1-3)Gal(b1-4)GlcNAc(b1-6)]GalNAc", "how_it_was_run": "as §1"}, "[5]": {"target": "Neu5Ac(a2-6)Gal(b1-4)GlcNAc(b1-3)Gal(b1-4)GlcNAc(b1-6)[Gal(b1-3)]GalNAc", "how_it_was_run": "as §1"}, "[6]": {"target": "Neu5Ac(a2-6)Gal(b1-4)GlcNAc(b1-3)Gal(b1-4)[Fuc(a1-3)]GlcNAc(b1-3)Gal(b1-4)[Fuc(a1-3)]GlcNAc", "how_it_was_run": "as §1"}, "[7]": {"target": "Neu5Ac(a2-6)Gal(b1-4)GlcNAc(b1-3)GalNAc", "how_it_was_run": "as §1"}, "[8]": {"target": "Neu5Ac(a2-6)Gal(b1-4)GlcNAc(b1-3)[Neu5Ac(a2-6)Gal(b1-4)GlcNAc(b1-6)]GalNAc", "how_it_was_run": "as §1"}, "[9]": {"target": "Neu5Ac(a2-6)Gal(b1-4)GlcNAc(b1-6)GalNAc", "how_it_was_run": "as §1"}, "[10]": {"target": "Neu5Ac(a2-6)Gal(b1-4)GlcNAc(b1-6)[Gal(b1-3)GlcNAc(b1-3)]Gal(b1-4)Glc", "how_it_was_run": "as §1"}, "[11]": {"target": "Neu5Ac(a2-6)Gal(b1-4)GlcNAc(b1-6)[Gal(b1-3)]GalNAc", "how_it_was_run": "as §1"}, "[12]": {"target": "Neu5Ac(a2-6)Gal(b1-4)GlcNAc6S", "how_it_was_run": "as §1"}, "Neu5Ac(a2-6)GalNAc": {"target": "Neu5Ac(a2-6)GalNAc", "how_it_was_run": "as §1"}, "[13]": {"target": "Neu5Ac(a2-6)GalNAc(b1-4)GlcNAc", "how_it_was_run": "as §1"}, "[14]": {"target": "Neu5Ac(a2-6)GalNAc(b1-4)GlcNAc6S", "how_it_was_run": "as §1"}, "[15]": {"target": "Neu5Ac(a2-6)GlcNAc(b1-4)GlcNAc", "how_it_was_run": "as §1"}, "[16]": {"target": "Neu5Ac(a2-6)GlcNAc(b1-4)GlcNAc(b1-4)GlcNAc", "how_it_was_run": "as §1"}, "Neu5Ac(a2-8)Neu5Ac": {"target": "Neu5Ac(a2-8)Neu5Ac", "how_it_was_run": "as §1"}, "[17]": {"target": "Neu5Ac(a2-8)Neu5Ac(a2-3)Gal(b1-3)GalNAc(b1-4)[Neu5Ac(a2-3)]Gal(b1-4)Glc", "how_it_was_run": "as §1"}, "[18]": {"target": "Neu5Ac(a2-8)Neu5Ac(a2-3)Gal(b1-3)GalNAc(b1-4)[Neu5Ac(a2-8)Neu5Ac(a2-3)]Gal(b1-4)Glc", "how_it_was_run": "as §1"}, "[19]": {"target": "Neu5Ac(a2-8)Neu5Ac(a2-3)Gal(b1-4)Glc", "how_it_was_run": "as §1"}, "[20]": {"target": "Neu5Ac(a2-8)Neu5Ac(a2-3)Gal(b1-4)GlcNAc", "how_it_was_run": "as §1"}, "[21]": {"target": "Neu5Ac(a2-8)Neu5Ac(a2-3)[Gal(b1-3)GalNAc(b1-4)]Gal(b1-4)Glc", "how_it_was_run": "as §1"}, "[22]": {"target": "Neu5Ac(a2-8)Neu5Ac(a2-3)[GalNAc(b1-4)]Gal(b1-4)Glc", "how_it_was_run": "as §1"}, "[23]": {"target": "Neu5Ac(a2-8)Neu5Ac(a2-8)Neu5Ac", "how_it_was_run": "as §1"}, "[24]": {"target": "Neu5Ac(a2-8)Neu5Ac(a2-8)Neu5Ac(a2-3)Gal(b1-4)Glc", "how_it_was_run": "as §1"}, "[25]": {"target": "Neu5Ac(a2-8)Neu5Ac(a2-8)Neu5Ac(a2-3)[Gal(b1-3)GalNAc(b1-4)]Gal(b1-4)Glc", "how_it_was_run": "as §1"}, "[26]": {"target": "Neu5Ac(a2-8)Neu5Ac(a2-8)Neu5Ac(a2-3)[GalNAc(b1-4)]Gal(b1-4)Glc", "how_it_was_run": "as §1"}, "[27]": {"target": "Neu5Ac(a2-8)Neu5Ac(a2-8)Neu5Ac(a2-8)Neu5Ac(a2-3)[GalNAc(b1-4)]Gal(b1-4)Glc", "how_it_was_run": "as §1"}, "[28]": {"target": "Neu5Ac(a2-8)Neu5Gc(a2-3)Gal(b1-4)GlcNAc", "how_it_was_run": "as §1"}, "[29]": {"target": "Neu5Ac(b2-6)Gal(b1-4)GlcNAc", "how_it_was_run": "as §1"}, "Neu5Ac(b2-6)GalNAc": {"target": "Neu5Ac(b2-6)GalNAc", "how_it_was_run": "as §1"}, "[30]": {"target": "Neu5Ac9Ac(a2-3)Gal(b1-3)GlcNAc", "how_it_was_run": "as §1"}, "[31]": {"target": "Neu5Ac9Ac(a2-3)Gal(b1-4)GlcNAc", "how_it_was_run": "as §1"}, "[32]": {"target": "Neu5Ac9Ac(a2-6)Gal(b1-4)GlcNAc", "how_it_was_run": "as §1"}, "[33]": {"target": "Neu5Gc(a2-3)Gal(b1-3)GlcNAc", "how_it_was_run": "as §1"}, "[34]": {"target": "Neu5Gc(a2-3)Gal(b1-3)[Fuc(a1-4)]GlcNAc", "how_it_was_run": "as §1"}, "Neu5Gc(a2-3)Gal(b1-4)Glc": {"target": "Neu5Gc(a2-3)Gal(b1-4)Glc", "how_it_was_run": "as §1"}, "[35]": {"target": "Neu5Gc(a2-3)Gal(b1-4)GlcNAc", "how_it_was_run": "as §1"}, "[36]": {"target": "Neu5Gc(a2-3)Gal(b1-4)GlcNAc(b1-3)Gal(b1-4)GlcNAc(b1-2)Man(a1-3)[Neu5Gc(a2-3)Gal(b1-4)GlcNAc(b1-3)Gal(b1-4)GlcNAc(b1-2)Man(a1-6)]Man(b1-4)GlcNAc(b1-4)GlcNAc", "how_it_was_run": "as §1"}, "[37]": {"target": "Neu5Gc(a2-3)Gal(b1-4)[Fuc(a1-3)]GlcNAc", "how_it_was_run": "as §1"}, "[38]": {"target": "Neu5Gc(a2-6)Gal(b1-4)GlcNAc", "how_it_was_run": "as §1"}, "Neu5Gc(a2-6)GalNAc": {"target": "Neu5Gc(a2-6)GalNAc", "how_it_was_run": "as §1"}, "[39]": {"target": "Neu5Gc(a2-8)Neu5Ac(a2-3)Gal(b1-4)GlcNAc", "how_it_was_run": "as §1"}, "[40]": {"target": "Neu5Gc(a2-8)Neu5Gc(a2-3)Gal(b1-4)GlcNAc", "how_it_was_run": "as §1"}}, "note": "This is one part of the list."}
{"binder": "B1", "values": [{"measurement": "glycan array binding signal (z-score)", "setting": "[1]", "result": -0.306}, {"measurement": "glycan array binding signal (z-score)", "setting": "[2]", "result": 1.62}, {"measurement": "glycan array binding signal (z-score)", "setting": "[3]", "result": -0.211}, {"measurement": "glycan array binding signal (z-score)", "setting": "[4]", "result": 2.5}, {"measurement": "glycan array binding signal (z-score)", "setting": "[5]", "result": 0.2}, {"measurement": "glycan array binding signal (z-score)", "setting": "[6]", "result": -0.033}, {"measurement": "glycan array binding signal (z-score)", "setting": "[7]", "result": -0.064}, {"measurement": "glycan array binding signal (z-score)", "setting": "[8]", "result": -0.163}, {"measurement": "glycan array binding signal (z-score)", "setting": "[9]", "result": -0.113}, {"measurement": "glycan array binding signal (z-score)", "setting": "[10]", "result": -0.3}, {"measurement": "glycan array binding signal (z-score)", "setting": "[11]", "result": -0.227}, {"measurement": "glycan array binding signal (z-score)", "setting": "[12]", "result": -0.325}, {"measurement": "glycan array binding signal (z-score)", "setting": "Neu5Ac(a2-6)GalNAc", "result": -0.345}, {"measurement": "glycan array binding signal (z-score)", "setting": "[13]", "result": -0.35}, {"measurement": "glycan array binding signal (z-score)", "setting": "[14]", "result": -0.267}, {"measurement": "glycan array binding signal (z-score)", "setting": "[15]", "result": -0.042}, {"measurement": "glycan array binding signal (z-score)", "setting": "[16]", "result": 0.348}, {"measurement": "glycan array binding signal (z-score)", "setting": "Neu5Ac(a2-8)Neu5Ac", "result": -0.32}, {"measurement": "glycan array binding signal (z-score)", "setting": "[17]", "result": -0.229}, {"measurement": "glycan array binding signal (z-score)", "setting": "[18]", "result": -0.235}, {"measurement": "glycan array binding signal (z-score)", "setting": "[19]", "result": -0.183}, {"measurement": "glycan array binding signal (z-score)", "setting": "[20]", "result": -0.343}, {"measurement": "glycan array binding signal (z-score)", "setting": "[21]", "result": -0.054}, {"measurement": "glycan array binding signal (z-score)", "setting": "[22]", "result": -0.104}, {"measurement": "glycan array binding signal (z-score)", "setting": "[23]", "result": -0.246}, {"measurement": "glycan array binding signal (z-score)", "setting": "[24]", "result": -0.269}, {"measurement": "glycan array binding signal (z-score)", "setting": "[25]", "result": -0.353}, {"measurement": "glycan array binding signal (z-score)", "setting": "[26]", "result": 0.236}, {"measurement": "glycan array binding signal (z-score)", "setting": "[27]", "result": -0.179}, {"measurement": "glycan array binding signal (z-score)", "setting": "[28]", "result": -0.342}, {"measurement": "glycan array binding signal (z-score)", "setting": "[29]", "result": 0.055}, {"measurement": "glycan array binding signal (z-score)", "setting": "Neu5Ac(b2-6)GalNAc", "result": -0.284}, {"measurement": "glycan array binding signal (z-score)", "setting": "[30]", "result": -0.339}, {"measurement": "glycan array binding signal (z-score)", "setting": "[31]", "result": 0.463}, {"measurement": "glycan array binding signal (z-score)", "setting": "[32]", "result": -0.341}, {"measurement": "glycan array binding signal (z-score)", "setting": "[33]", "result": -0.329}, {"measurement": "glycan array binding signal (z-score)", "setting": "[34]", "result": -0.328}, {"measurement": "glycan array binding signal (z-score)", "setting": "Neu5Gc(a2-3)Gal(b1-4)Glc", "result": 0.149}, {"measurement": "glycan array binding signal (z-score)", "setting": "[35]", "result": -0.285}, {"measurement": "glycan array binding signal (z-score)", "setting": "[36]", "result": -0.166}, {"measurement": "glycan array binding signal (z-score)", "setting": "[37]", "result": -0.306}, {"measurement": "glycan array binding signal (z-score)", "setting": "[38]", "result": -0.28}, {"measurement": "glycan array binding signal (z-score)", "setting": "Neu5Gc(a2-6)GalNAc", "result": -0.367}, {"measurement": "glycan array binding signal (z-score)", "setting": "[39]", "result": -0.232}, {"measurement": "glycan array binding signal (z-score)", "setting": "[40]", "result": -0.155}]}
